Laboratory results taken from paper PMC9579167, “Structure of the proteolytic enzyme PAPP-A with the endogenous inhibitor stanniocalcin-2 reveals its inhibitory mechanism” (Nature Communications, 2022).

Target: T1, wild-type human PAPP-A (human, UniProt Q13219 82-1627)
T1 construct: PAPP-A (pappalysin-1), human, wild type; Homodimer via C1210; also called dimeric PAPP-A; pcDNA3.1-PAPP-A; source: 293T cells, transient transfection, conditioned medium
Assay: enzyme inhibition kinetics (Morrison Ki equation, competitive inhibition); inhibition of PAPP-A (50 pM) cleavage of 125I-IGFBP-4 (10 nM) with IGF2 (100 nM) by STC2(C120A); 50 mM Tris-HCl, 100 mM NaCl, 1 mM CaCl2, pH 7.5, 37 °C

T1 sequence (Q13219 82-1627): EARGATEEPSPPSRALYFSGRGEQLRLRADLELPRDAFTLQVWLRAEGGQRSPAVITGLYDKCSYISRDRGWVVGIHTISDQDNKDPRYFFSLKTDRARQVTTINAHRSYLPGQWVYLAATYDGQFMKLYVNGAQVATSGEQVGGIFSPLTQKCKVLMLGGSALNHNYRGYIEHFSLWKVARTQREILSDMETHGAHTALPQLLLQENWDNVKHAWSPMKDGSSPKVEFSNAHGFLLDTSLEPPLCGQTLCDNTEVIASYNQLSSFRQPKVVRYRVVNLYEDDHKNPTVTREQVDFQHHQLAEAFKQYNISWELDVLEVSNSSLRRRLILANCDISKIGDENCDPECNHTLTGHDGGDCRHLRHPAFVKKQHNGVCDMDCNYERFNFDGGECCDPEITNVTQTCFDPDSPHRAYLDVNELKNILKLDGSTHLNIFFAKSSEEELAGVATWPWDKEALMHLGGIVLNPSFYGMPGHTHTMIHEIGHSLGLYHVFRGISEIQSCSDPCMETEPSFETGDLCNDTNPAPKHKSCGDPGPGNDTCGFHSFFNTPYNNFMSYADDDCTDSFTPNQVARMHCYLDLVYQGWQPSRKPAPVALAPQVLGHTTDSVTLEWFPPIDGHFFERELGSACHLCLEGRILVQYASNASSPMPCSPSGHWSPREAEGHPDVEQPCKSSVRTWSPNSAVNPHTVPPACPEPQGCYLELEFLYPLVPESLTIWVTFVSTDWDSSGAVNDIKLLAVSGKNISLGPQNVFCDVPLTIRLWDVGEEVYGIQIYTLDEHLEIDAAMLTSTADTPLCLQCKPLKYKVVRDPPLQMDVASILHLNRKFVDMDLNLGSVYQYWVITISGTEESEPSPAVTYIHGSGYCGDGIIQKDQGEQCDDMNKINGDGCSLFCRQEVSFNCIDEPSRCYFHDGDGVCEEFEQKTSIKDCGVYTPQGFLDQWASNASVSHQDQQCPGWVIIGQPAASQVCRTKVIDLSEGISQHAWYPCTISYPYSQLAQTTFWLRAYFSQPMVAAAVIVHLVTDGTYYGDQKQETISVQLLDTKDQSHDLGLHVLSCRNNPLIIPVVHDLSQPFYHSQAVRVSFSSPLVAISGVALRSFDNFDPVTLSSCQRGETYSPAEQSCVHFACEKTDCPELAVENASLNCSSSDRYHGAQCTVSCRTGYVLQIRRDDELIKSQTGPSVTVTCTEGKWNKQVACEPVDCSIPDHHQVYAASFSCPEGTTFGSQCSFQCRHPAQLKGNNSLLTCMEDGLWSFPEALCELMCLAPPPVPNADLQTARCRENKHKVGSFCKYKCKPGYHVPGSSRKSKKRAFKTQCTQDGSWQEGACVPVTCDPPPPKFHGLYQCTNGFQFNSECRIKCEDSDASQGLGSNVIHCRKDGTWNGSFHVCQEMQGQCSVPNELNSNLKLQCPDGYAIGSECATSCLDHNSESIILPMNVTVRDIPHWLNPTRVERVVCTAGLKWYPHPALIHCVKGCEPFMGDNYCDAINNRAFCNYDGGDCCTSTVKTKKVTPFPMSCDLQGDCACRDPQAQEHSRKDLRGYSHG

Ki: 47.3 nM
B1: STC2 variant with C120 replaced by alanine (natural protein)
chain: not shown
notes: stanniocalcin-2, human; also called STC2(C120A); STC2_C120A; source: 293T cells, transient transfection
